Measurements as given in article PMC4336329 (PLoS ONE, 2015).
Hit rate of the full screen: of about 310,000 compounds, about 2,200 (0.71%) showed an effect of 50% or more. The effect is printed as a negative number. The list shows a part of the results.

Target: human ether-à-go-go-related gene (hERG) potassium channel (human, UniProt Q12809)
Assay: primary screen, population patch clamp on CHO cells stably expressing hERG

Chain of human ether-à-go-go-related gene (hERG) potassium channel (Q12809 whole entry, looked up): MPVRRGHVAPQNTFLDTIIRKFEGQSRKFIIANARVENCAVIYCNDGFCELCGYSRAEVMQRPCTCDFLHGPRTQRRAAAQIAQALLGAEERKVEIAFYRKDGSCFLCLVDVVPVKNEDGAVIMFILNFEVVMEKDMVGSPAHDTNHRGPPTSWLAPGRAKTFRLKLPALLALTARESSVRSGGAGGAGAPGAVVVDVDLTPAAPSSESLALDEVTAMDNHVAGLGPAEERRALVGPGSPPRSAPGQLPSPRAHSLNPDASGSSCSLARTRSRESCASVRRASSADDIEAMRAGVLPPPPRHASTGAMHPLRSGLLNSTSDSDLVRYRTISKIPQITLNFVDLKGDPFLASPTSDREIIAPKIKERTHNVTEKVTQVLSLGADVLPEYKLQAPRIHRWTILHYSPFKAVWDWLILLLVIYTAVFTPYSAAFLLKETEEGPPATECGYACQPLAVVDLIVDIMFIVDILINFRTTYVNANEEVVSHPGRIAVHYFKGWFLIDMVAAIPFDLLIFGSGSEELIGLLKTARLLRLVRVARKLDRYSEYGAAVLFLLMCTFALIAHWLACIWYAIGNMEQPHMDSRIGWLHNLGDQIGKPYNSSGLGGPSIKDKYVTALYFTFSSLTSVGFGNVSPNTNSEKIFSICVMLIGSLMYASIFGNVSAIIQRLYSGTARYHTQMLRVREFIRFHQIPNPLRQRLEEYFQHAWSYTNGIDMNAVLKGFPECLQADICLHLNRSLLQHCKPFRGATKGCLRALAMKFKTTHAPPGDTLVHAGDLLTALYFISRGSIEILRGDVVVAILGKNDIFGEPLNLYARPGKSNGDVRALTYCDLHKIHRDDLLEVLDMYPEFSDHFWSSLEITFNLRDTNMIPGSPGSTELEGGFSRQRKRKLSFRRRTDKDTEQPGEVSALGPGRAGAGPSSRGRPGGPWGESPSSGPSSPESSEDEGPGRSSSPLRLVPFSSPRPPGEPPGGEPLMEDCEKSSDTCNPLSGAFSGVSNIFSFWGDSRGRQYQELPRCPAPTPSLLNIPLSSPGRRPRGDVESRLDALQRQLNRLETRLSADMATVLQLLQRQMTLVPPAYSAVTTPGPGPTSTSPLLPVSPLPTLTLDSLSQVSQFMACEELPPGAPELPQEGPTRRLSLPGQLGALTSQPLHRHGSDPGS

Compound	hERG current change (%, negative = inhibition) at 1uM
CCC(CC)C(=O)N1CCN(c2ccccc2)CC1	5.52%
O=C1Nc2ccccc2Oc2cc([N+](=O)[O-])ccc21	13.2%
CCCCOc1cccc(C(=O)N(Cc2cccs2)C2CCS(=O)(=O)C2)c1 (stereo not shown)	4.37%
CC(C)(C)NC(=O)NC(=O)COC(=O)CCCc1c[nH]c2ccccc12	-6.79%
N#Cc1nc(-c2cccs2)oc1NCCN1CCOCC1	0.102%
Cc1nn(C)c(Cl)c1/C=N/OC(=O)c1ccc(F)cc1	5.15%
CC(=O)NCCc1cc2ccc(C)cc2[nH]c1=O	7.29%
C=CCn1cnc2c(c1=O)c1nc3ccccc3nc1n2-c1ccc(C)cc1	-2.35%
O=C(COC(=O)CC1CCCCC1)Nc1c(Cl)cccc1Cl	10.5%
N=C1C(=O)OCC1c1ccccc1NC(=O)CN1CCCCC1 (stereo not shown)	7.78%
CC1CCN(S(=O)(=O)N2CCC(C(=O)NCc3cccs3)CC2)CC1	2.94%
CCOC(=O)c1sc(=S)n(C)c1NC(=O)c1cccc(Br)c1	12.9%
C(=N\Nc1cc(N2CCCCC2)ncn1)/c1ccco1	14.1%
COc1ccc(S(=O)(=O)N2CCCC(C(F)(F)F)C2)cc1 (stereo not shown)	14.4%
C[C@H](O)[C@@H](C(=O)N1CCN(C(=O)OC(C)(C)C)CC1)n1cc(CCCCNC(=O)OC(C)(C)C)nn1	-12.4%
Cc1ccc(NC(=O)OCCN2CCN(S(=O)(=O)c3ccc(C)cc3)CCC2=O)cc1	-0.393%
O=C(CS(=O)c1ccc(Br)cc1)N1CCOCC1 (stereo not shown)	4.17%
Cc1ccc(/C=N\NC(=O)C2CC(=O)N(c3ccccc3)C2)o1 (stereo not shown)	10.1%
CCN(CC)S(=O)(=O)c1ccc(N=Cc2c(O)n(-c3ccccc3)c(=O)[nH]c2=O)cc1	1.64%
Cc1ccc(C)c(CSCC(=O)NCc2cccs2)c1	-0.287%
CCOc1ccc(C(=O)Nc2nnc(C)s2)cc1OCC	-1.61%
CCN(CC)S(=O)(=O)c1ccc(C)c(NC(=O)CN(C)C)c1	11.5%
O=C(O)c1c2c(nc3ccccc13)/C(=C/c1ccc(OC(F)F)cc1)CCC2	19.4%

Compound	hERG current change (%, negative = inhibition) at 1uM
O=C(NCc1n[nH]c(=S)n1-c1ccccc1)c1ccco1	14.1%
COc1cc(C2C(C(C)=O)=C(O)C(=O)N2CCc2ccc(OC)c(OC)c2)ccc1O (stereo not shown)	18.6%
Brc1ccc(OCCOCCN2CCOCC2)cc1	9.5%
CC(C)(c1cc(Br)c(O)c(Br)c1)c1cc(Br)c(O)c(Br)c1	6.66%
CC(=O)NC(=O)NC1OC(=O)C(Cl)=C1Cl (stereo not shown)	12.4%
COc1ccc(C2CC(c3ccccc3)=NN2c2ccccc2)c(C(=O)O)c1OC (stereo not shown)	0.749%
COc1cc(OC)cc(-c2n[nH]c(=S)n2-c2ccc3c(c2)OCCO3)c1	14.5%
COc1ccc(C(C(=O)NC2CCCC2)N(Cc2ccco2)C(=O)c2snc(C(N)=O)c2N)cc1OC (stereo not shown)	27%
Cc1nc(CN(C)C(=O)c2ccccc2OC2CCN(S(C)(=O)=O)CC2)cs1	11.1%
Cc1cc(C)n2nc(C(=O)Nc3nccs3)nc2n1	-0.338%
COc1ccc(C(=O)NCCCOc2cccnc2)cc1OC1CCN(C(C)=O)CC1	9.64%
O=[N+]([O-])c1ccc(C(=S)N2CCC(Cc3ccccc3)CC2)cc1	1.35%
CCN(CC)S(=O)(=O)c1ccc(C(=O)OCC(=O)Nc2sc3c(c2C#N)CCCCC3)cc1	-0.19%
O=C(c1ccco1)N1CCN(C(=O)C2CCN(S(=O)(=O)c3cccs3)CC2)CC1	-26.1%
Cc1ccc(Cn2ccnc2C(=O)Nc2ccccc2)cc1	9.01%
COCCNC(=O)C1CCN(Cc2cccc(OCc3ccccc3)c2)CC1	1.86%
N#C/C(=C\c1ccc(C(=O)O)cc1)c1ccccn1	17.3%
Cc1ccc(CNC(=O)c2cccc3c2C(=O)c2ccc(N4CCCCC4)cc2S3(=O)=O)cc1	6.41%
CCC(C)(C(=O)Nc1ccc(OC)cc1)N(C)C(=O)Cn1nnnc1N (stereo not shown)	18%
COc1ccc(NC(=O)COC(=O)C23CCC(=O)N2c2ccccc2S3)cc1 (stereo not shown)	12.9%
Cc1ccc(CNS(=O)(=O)c2ccc3c(c2)n(C)c(=O)c(=O)n3C)cc1	3.93%
Brc1cccc(-c2nnc3sc(CNC4CCCC4)cn23)c1	6.04%
CCN(CC)C(=O)N1c2ccccc2C=Cc2ccccc21	4.41%

Compound	hERG current change (%, negative = inhibition) at 1uM
Cn1ncc2c(N3CCC(Cc4ccccc4)CC3)ncnc21	-1.15%
COc1cc(NC(c2ccccc2)c2ccccc2)cc(OC)c1OC	5.7%
Cc1cc(Br)cc(Cl)c1OC(=O)c1ccncc1	12.6%
COCCCNC(=O)c1sc2ncnc(N3CCc4ccccc4C3)c2c1C	-14.2%
Cc1noc(C)c1COc1ccc(C(=O)OCC(=O)Nc2c(C)n(C)n(-c3ccccc3)c2=O)cc1	13.9%
CC(C)OCC(O)CS(=O)Cc1ccccc1 (stereo not shown)	8.83%
Cc1ccc(-n2nc3ccc(NC(=O)/C=C/c4ccco4)cc3n2)cc1	6.25%
CCOC(=O)CSc1nc(N)c(C#N)c(-c2ccc(OCC)cc2)c1C#N	14.6%
Cn1c(SCC(=O)NNC(=O)Cc2ccccc2)nnc1-c1ccccc1	10.1%
CC(C)(C)n1nc2c(c1NC(=O)COc1ccccc1F)CS(=O)(=O)C2	3.22%
Cc1[nH]n(-c2ccccc2)c(=O)c1N=Nc1ccc(C(N)=O)cc1	19.8%
COc1cccc(NC(=O)C2CCCN2C(=O)Nc2ccccc2F)c1 (stereo not shown)	0.224%
CC(=O)Nc1ccc(N2C(=O)CSC2c2ccccc2)cc1 (stereo not shown)	11.1%
COC(=O)c1ccccc1NC(=O)c1ccc(NC(=O)C2CCCO2)cc1 (stereo not shown)	-0.206%
Cc1cccc(N=Nc2cnc(N)s2)c1	6.35%
CCCc1ccc(-c2cc(C(=O)NC3=NCCS3)c3ccccc3n2)cc1	1.42%
COc1cc2c(c(O)c1OC)C(=O)C(OC)CCC2 (stereo not shown)	0.157%
CC(=O)c1c(C)[nH]c(C(=O)COC(=O)COc2ccccc2F)c1C	-0.562%
Cc1nn(C2CCS(=O)(=O)C2)c(Cl)c1/C=C/C(=O)OCC(=O)N(C)C (stereo not shown)	9.75%
O=C(CCN1C(=O)C2C3C=CC(C3)C2C1=O)NC1CCCc2ccccc21 (stereo not shown)	8.1%
CC(C)C[C@@H](CO)N1CCN(Cc2cccnc2)CCC1=O	6.9%
COc1ccc(OC(C)C(=O)Nc2ccccc2F)cc1 (stereo not shown)	12.5%
CCc1c(C(=O)NN2C(=O)C3CCCCC3C2=O)csc1C (stereo not shown)	15.2%

Compound	hERG current change (%, negative = inhibition) at 1uM
Cc1coc2cc3oc(=O)c4c(c3cc12)CCC4	13.7%
Cl.O=C(CNCC(=O)Nc1ccc(F)c(F)c1F)Nc1ccc(F)c(F)c1F	5.75%
Cc1ccc(S(=O)(=O)N2CCC(=O)N(C(COCc3ccccc3)Cc3ccccc3)CC2)cc1 (stereo not shown)	17.5%
COc1ccccc1N1CCN(C(=O)CN(Cc2ccc(Cl)cc2)S(C)(=O)=O)CC1	10.7%
O=C1C=C(NC2=CC3OC(c4ccccc4)OCC3OC2=O)CCC1 (stereo not shown)	11.2%
O=C(Nc1ccccc1)Nc1nnc(Cc2ccc(F)cc2)s1	13.8%
CCc1ccc(OC)c(-c2csc(N)n2)c1	7.14%
COc1ccc(-c2[nH]ncc2CN2CCC(OCc3cccnc3)CC2)c(F)c1	-10.6%
CCc1ccccc1-n1nnnc1-c1cnccc1C(F)(F)F	3.85%
COc1ccc(/C=C/c2cc(C(=O)O)c3ccccc3n2)cc1	11.9%
CN(C)c1ccc(/C=N/N(CCO)C2=NS(=O)(=O)c3ccccc32)cc1	20.8%
O=C(Nc1ccccc1)c1ccsc1	7.56%
CCOc1ccccc1N=Nc1c(C)[nH]n(-c2ccccc2)c1=O	12.3%
CC(C)N(C(=O)Cn1c(SCC(=O)NC2CC2)nc2ccccc21)C(C)C	4.23%
O=C(O)[C@H](Cc1ccccc1)N1Cc2ccccc2C1=O	0.491%
O=C(O)c1ccc(Cl)c(S(=O)(=O)Nc2ccc(OCc3ccccc3)cc2)c1	13.7%
c1ccc(-n2nc3c(ccc4cnnc43)[nH]2)cc1	5.82%
Cc1cccc(N2CCN(CC(=O)N(C)Cc3ccccc3)CC2C)c1 (stereo not shown)	3.42%
CCOC(=O)c1ccc(NNC(C)=O)c([N+](=O)[O-])c1	5.93%
O=C(N/N=C/c1c[nH]c2ccccc12)C1CC1c1ccccc1 (stereo not shown)	0.812%
O=C(COc1ncnc2ccccc12)NC(=O)NCc1ccccc1	6.9%
O=C(O)c1ccc(N2C(=O)CSC2=S)cc1	2.13%
